Source: the supplement of paper PMC10369915
The other results are listed elsewhere or left out. Cut-off read from the data, not from the text of the source: active = 3.2 or more and inactive = the rest. The signal is at background level for most entries.

Assays:
Assay in all cases: enrichment score (SH2-bound / input frequency) (ratio); bacterial display of known human phosphotyrosine sites (pTyr-Var adds point mutants) read by sequencing; higher = stronger binding; tyrosines were phosphorylated by kinases first
Conditions in all cases: peptide library: Human pTyr
SHP2 C-SH2 domain E139D = target: SHP2 C-SH2 domain E139D
[1] = target: SHP2 C-SH2 domain wild-type
SHP2 N-SH2 domain L43F = target: SHP2 N-SH2 domain L43F
SHP2 N-SH2 domain T42A = target: SHP2 N-SH2 domain T42A
SHP2 N-SH2 domain T52S = target: SHP2 N-SH2 domain T52S
[2] = target: SHP2 N-SH2 domain wild-type
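Note: displayed peptides selected on beads carrying the immobilized SH2 domain, with library peptides lacking any tyrosine serving as negative controls.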

Row | Binder | enrichment score (SHP2 C-SH2 domain E139D) | enrichment score [1] | enrichment score (SHP2 N-SH2 domain L43F) | enrichment score (SHP2 N-SH2 domain T42A) | enrichment score (SHP2 N-SH2 domain T52S) | enrichment score [2]
1 | DTDQLKLYEEPLSKL [ATR_HUMAN_291] | inactive: 0.725 | inactive: 0.734 | inactive: 0.715 | inactive: 0.696 | inactive: 0.815 | inactive: 0.811
2 | IPHDGNLYPRLYPEL [SDCB1_HUMAN_46] | inactive: 0.667 | inactive: 0.56 | inactive: 0.548 | inactive: 0.6 | inactive: 0.569 | inactive: 0.662
3 | FPFEAEAYRNIEPVY [ATR_HUMAN_310] | inactive: 0.723 | inactive: 0.568 | inactive: 0.599 | inactive: 0.563 | inactive: 0.742 | inactive: 0.595
4 | KQSDDEVYAPGLDIE [SF3A1_HUMAN_456] | inactive: 0.962 | inactive: 1.07 | inactive: 1.36 | inactive: 1.03 | inactive: 1.15 | inactive: 1.12
5 | VTEEPEIYEPNFIFF [SF3B2_HUMAN_379] | inactive: 1.62 | inactive: 1.83 | inactive: 1.29 | inactive: 1.49 | inactive: 1.94 | inactive: 2.22
6 | TIHGDLAYEGKEFET [SF3B2_HUMAN_592_YA] | inactive: 0.846 | inactive: 0.533 | inactive: 0.699 | inactive: 0.495 | inactive: 0.628 | inactive: 0.53
7 | SPKREVLYDSEGLSG [SFR19_HUMAN_732] | inactive: 0.856 | inactive: 0.692 | inactive: 0.702 | inactive: 0.768 | inactive: 0.81 | inactive: 0.898
8 | VHPLSAPYPPLDTPE [SH2B1_HUMAN_494] | inactive: 0.733 | inactive: 0.584 | inactive: 0.707 | inactive: 0.623 | inactive: 0.757 | inactive: 1.04
9 | ARAVENQYSFYGGGG [SH2B2_HUMAN_629] | inactive: 0.876 | inactive: 0.62 | inactive: 0.678 | inactive: 0.573 | inactive: 0.624 | inactive: 0.601
10 | GEAPSNIYVEVEDEG [SH2D2A_HUMAN_305] | inactive: 1.52 | inactive: 1.1 | inactive: 1.02 | inactive: 1.24 | inactive: 1.44 | inactive: 1.34
11 | ESYTHIQYLFEQESF [SH2D3_HUMAN_283] | inactive: 2.25 | inactive: 2.48 | inactive: 1.98 | inactive: 1.93 | inactive: 2.14 | inactive: 2.97
12 | VAHHGGLYHTNAEVK [SH2D3_HUMAN_793] | inactive: 1.02 | inactive: 0.911 | inactive: 0.904 | inactive: 0.988 | inactive: 1 | inactive: 1.01
13 | EEPPDHQYYNDFPGK [SHC1_HUMAN_349] | inactive: 0.856 | inactive: 0.911 | inactive: 0.911 | inactive: 1.01 | inactive: 0.874 | inactive: 1.14
14 | KPSIVTKYVESDDEK [ATRX_HUMAN_89] | inactive: 1.39 | inactive: 1.18 | inactive: 1.14 | inactive: 1.3 | inactive: 1.44 | inactive: 1.4
15 | EPPDHQYYNDFPGKE [SHC1_HUMAN_350] | inactive: 0.84 | inactive: 0.772 | inactive: 0.879 | inactive: 0.766 | inactive: 0.813 | inactive: 0.992
16 | DGSDHPYYNSIPSKM [SHC3_HUMAN_342] | inactive: 0.604 | inactive: 0.546 | inactive: 0.766 | inactive: 0.612 | inactive: 1.03 | inactive: 0.913
17 | NSKCSSVYENCLEQS [SHC4_HUMAN_424] | inactive: 0.77 | inactive: 0.715 | inactive: 0.635 | inactive: 0.722 | inactive: 0.723 | inactive: 0.727
18 | DERPPEEYDQPWEWK [SHF_HUMAN_201] | inactive: 1 | inactive: 0.998 | inactive: 1.14 | inactive: 0.986 | inactive: 1.13 | inactive: 1.19

Row | Binder | enrichment score (SHP2 C-SH2 domain E139D) | enrichment score [1] | enrichment score (SHP2 N-SH2 domain L43F) | enrichment score (SHP2 N-SH2 domain T42A) | enrichment score (SHP2 N-SH2 domain T52S) | enrichment score [2]
19 | KTLSEVDYAPAGPAR [SHIP2_HUMAN_1135] | inactive: 1.24 | inactive: 0.634 | inactive: 1.05 | inactive: 0.492 | inactive: 0.635 | inactive: 0.529
20 | NSFNNPAYAVLEGVP [SHIP2_HUMAN_986_YA] | inactive: 0.926 | inactive: 2.67 | inactive: 0.855 | inactive: 1.23 | inactive: 0.599 | inactive: 0.623
21 | EPNNHTEYASIQTSP [SHPS1_HUMAN_453] | active: 4.83 | active: 9.9 | inactive: 0.707 | inactive: 1.3 | inactive: 0.579 | inactive: 0.766
22 | ASEDTLTYADLDMVH [SHPS1_HUMAN_470] | inactive: 0.808 | inactive: 0.589 | active: 3.58 | inactive: 2.67 | inactive: 2.69 | inactive: 1.58
23 | SACTMGAYHPLLYEK [SIAT1_HUMAN_369] | inactive: 1.31 | inactive: 1.16 | inactive: 1.01 | inactive: 0.97 | inactive: 1.25 | inactive: 1.19
24 | ESQEELHYATLNFPG [SIG10_HUMAN_667] | active: 3.91 | active: 6.75 | active: 23.8 | active: 12 | active: 15.4 | active: 7.86
25 | AAEEVMCYTSLQLRP [SIT1_HUMAN_127] | inactive: 1.67 | inactive: 1.97 | inactive: 1.75 | inactive: 2.86 | inactive: 1.71 | inactive: 2.19
26 | SVEEVPLYGNLHALQ [SIT1_HUMAN_90_YA] | inactive: 0.942 | inactive: 0.606 | inactive: 0.599 | inactive: 0.567 | inactive: 0.603 | inactive: 0.73
27 | EIESSPQYRLRIAME [ATX2L_HUMAN_309] | inactive: 1.17 | inactive: 1.05 | inactive: 1.05 | inactive: 1.04 | inactive: 1.13 | inactive: 1.43
28 | TRRKGVDYASYYQGL [SKAP1_HUMAN_295] | inactive: 1 | inactive: 0.868 | inactive: 0.867 | inactive: 0.832 | inactive: 1.2 | inactive: 1.86
29 | TRRKGVDYASAAQGL [SKAP1_HUMAN_295_YA] | inactive: 0.702 | inactive: 0.671 | inactive: 0.806 | inactive: 0.776 | inactive: 0.799 | inactive: 0.675
30 | KGVDYASYYQGLWDC [SKAP1_HUMAN_298] | inactive: 1.44 | inactive: 1.21 | inactive: 0.992 | inactive: 1.18 | inactive: 1.36 | inactive: 1.4
31 | KGVDAASYAQGLWDC [SKAP1_HUMAN_298_YA] | inactive: 0.987 | inactive: 0.814 | inactive: 1.2 | inactive: 1.04 | inactive: 1.08 | inactive: 0.964
32 | DAEDGEEYDDPFAGP [SKAP2_HUMAN_75] | inactive: 1.52 | inactive: 0.951 | inactive: 1.11 | inactive: 1.14 | inactive: 1.14 | inactive: 1.26
33 | KDESRNVYYELNDVR [SKT_HUMAN_244] | inactive: 0.686 | inactive: 0.834 | inactive: 1.09 | inactive: 0.732 | inactive: 0.936 | inactive: 1.38
34 | APEMVNLYSGKIITT [AAK1_HUMAN_234] | inactive: 1.04 | inactive: 0.748 | inactive: 0.51 | inactive: 0.736 | inactive: 0.694 | inactive: 0.611
35 | MARNEGFYADPALAH [SKT_HUMAN_393_YA] | inactive: 0.629 | inactive: 0.572 | inactive: 0.505 | inactive: 0.604 | inactive: 0.556 | inactive: 0.69
36 | EKKSLTIYAQVQKPG [SLAF1_HUMAN_281] | inactive: 2.44 | active: 5.11 | inactive: 1.41 | inactive: 1.49 | inactive: 1.79 | inactive: 1.73
